In patent publication US9090652B2, “Bile acid derivatives as FXR ligands for the prevention or treatment of FXR-mediated diseases or conditions” (Intercept Pharmaceuticals, Inc., priority 2006, dated 2015):

System: FXR regulated genes (SHP, CYP7α1, SREPB1c, FAS, BSEP) in HepG2 cells
[1] = listed as Compound 9, ammonium salt

## CC[C@H]1[C@@H](O)C2C3CCC(C(C)CCOS(=O)(=O)O)[C@@]3(C)CCC2[C@@]2(C)CC[C@@H](O)C[C@@H]12 (stereo partly drawn) [UPF-987, 3α,7α,23-trihydroxy-6α-ethyl-24-nor-5β-cholan-23-sulphate triethyl ammonium salt]
  Effect on BSEP expression: potent inducer of
  Effect on SHP expression: potent inducer of
Ammonium salt
  Effect on Cyp7A1 expression: inhibitor of
  Effect on FAS mRNA expression: potent inhibition
[1]
  BSEP mRNA induction: 2 fold
  Effect on Cyp7A1 expression: potently suppressed
  Effect on FAS mRNA expression: potently suppressed
  Effect on SREBP-1c mRNA expression: potently suppressed
  SHP mRNA induction: 2 fold

Structures can show the parent of a compound that is named as a salt. Where two headings read alike, the source gives them in different places.
